{"source": "PubChem BioAssay AID686979", "about": "(National Center for Advancing Translational Sciences (NCATS), 2013)", "note": "Screen size: about 420,000 compounds; about 50,000 (12%) were called active. Inconclusive results, whose numbers are uncertain, are shown with a selection of clear calls. The call rests on the fitted dose curve; in most records, active means well fitted inhibition curve with a large enough effect; inconclusive means small, poorly fitted or top-dose-only effect; inactive means flat fitted curve, though single readings scatter. No potency is given beside an inconclusive call; the fits are too rough. On the % scale 0 is the no-effect control and ±100 the full control effect; potency means the concentration at half of the fitted maximal effect; tags describe the fitted curve by direction and shape.", "data": [{"assay": "qHTS for Inhibitors of human tyrosyl-DNA phosphodiesterase 1 (TDP1): qHTS in cells in presence of CPT; further: nearly all actives have a fitted effect of over 55% in size", "conditions": "chicken DT40 Tdp1-/-;hTDP1 cells + 20 nM CPT, ATP luminescence, 48 h; activity change, negative = growth inhibition: at 46.2 µM (top of the series) unless noted", "procedure,_shortened": "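Chicken DT40 Tdp1-/- cells stably complemented with human TDP1 were seeded at 400 cells/well in medium containing 20 nM camptothecin, exposed to pin-transferred compounds, and grown at 37 °C for at least 48 hr. Viability was read as ATP luminescence.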", "values": [{"smiles": "Cc1cnc(NC(=O)CC(C)c2ccccc2)s1", "note": "(stereo not drawn)", "Potency": "active: 6.51 µM"}, {"smiles": "Cc1ccc2cccc(NC(=S)NC(=O)c3ccnn3C)c2n1", "Potency": "inconclusive [inhibitor, single point]"}, {"smiles": "Cc1cc(OCC(=O)OCC(=O)N2CCc3ccccc3C2)ccc1Cl", "Potency": "inactive"}, {"smiles": "COc1ccc(-n2c(C)cc(C(=O)CN3C(=O)NC4(CCCc5sccc54)C3=O)c2C)cc1", "note": "(stereo not drawn)", "Potency": "active: 16.4 µM"}, {"smiles": "CCOC(=O)CSc1ccc(-c2nc3ccccc3[nH]2)cn1", "Potency": "inconclusive [inhibitor, partial curve, poor fit]"}, {"smiles": "COCCCn1c(-c2ccco2)nc2ccccc2c1=O", "Potency": "inactive"}, {"smiles": "Cc1onc(-c2ccccc2)c1C(=O)NC1CC1", "Potency": "inactive"}, {"smiles": "Nc1nc(C(=O)N2CCOCC2)nn1S(=O)(=O)c1ccc(Cl)cc1", "Potency": "inconclusive [inhibitor, single point]"}, {"smiles": "COc1cc(/C=C/C(=O)OCC(=O)Nc2cc(S(=O)(=O)N3CCOCC3)ccc2Cl)cc(OC)c1OC", "Potency": "inconclusive [inhibitor, single point]"}, {"smiles": "CCC(CC)c1nnc(NC(=O)CSCC(=O)Nc2cc(C)on2)s1", "Potency": "inactive"}, {"smiles": "CCCCOc1c(Br)cc(/C=C2\\N=C(C)OC2=O)cc1OCC", "Potency": "active: 13 µM"}, {"smiles": "CCC(C)[C@H](NC(=O)NC1CCCc2ccccc21)C(=O)OC", "note": "(stereo partly drawn)", "Potency": "inactive"}, {"smiles": "COc1ccccc1N1CCN(C(c2cccs2)c2nnnn2C2CCCC2)CC1", "note": "(stereo not drawn)", "Potency": "inconclusive [inhibitor, single point]"}, {"smiles": "CCOc1ccc2nc(SCC(=O)Nc3cccc(S(=O)(=O)NC4=NCCCCC4)c3)[nH]c2c1", "Potency": "inconclusive [inhibitor, single point]"}, {"smiles": "O=C(c1ccc2c(c1)N(Cc1ccccc1F)C(=O)c1ccccc1S2(=O)=O)N1CCN(c2ccccc2F)CC1", "Potency": "inconclusive [inhibitor, partial curve]"}, {"smiles": "COc1ccc2c(CN3CCN(c4ccccc4F)CC3)cc(=O)oc2c1", "Potency": "inconclusive [inhibitor, single point]"}, {"smiles": "CCOC(=O)c1ccsc1NC(=O)CCS(=O)(=O)c1ccccc1", "Potency": "inconclusive [inhibitor, single point]"}, {"smiles": "CC(=O)Nc1ccc(S(=O)(=O)Nc2nc3ccccc3nc2-n2ccc(=NC(=O)c3ccc(F)cc3)cc2)cc1", "Potency": "inactive"}, {"smiles": "CCCC(=O)N1CCCN(c2nc(N)c3cc(OC)c(OC)cc3n2)CC1", "Potency": "inactive"}, {"smiles": "Cc1ccc(C(=O)N(CC(=O)NC2CCCC2)c2ccc3c(c2)OCCO3)s1", "Potency": "inconclusive [inhibitor, single point]"}, {"smiles": "CCOc1ccccc1OCCCC(=O)Nc1cccc(S(=O)(=O)N2CCOCC2)c1", "Potency": "inconclusive [inhibitor, single point]"}, {"smiles": "OCCN(Cc1ccccc1)Cc1cccc(F)c1", "activity change, negative = growth inhibition": "inconclusive: -32.7% [inhibitor]"}, {"smiles": "Cc1ccc(OCC(=O)Nc2cccc(-c3nc4ccccc4o3)c2C)cc1C", "Potency": "inconclusive [inhibitor, single point]"}, {"smiles": "O=C(Cn1c(=O)n(-c2cccc(Cl)c2)c(=O)c2sc3ccccc3c21)NC1CCCCC1", "Potency": "active: 23.1 µM"}, {"smiles": "N#Cc1ccsc1NC(=O)c1ccc(Cl)c([N+](=O)[O-])c1", "Potency": "active: 2.91 µM"}, {"smiles": "CCOC(=O)Cc1csc(NC(=O)c2cccc(N3C(=O)CCC3=O)c2)n1", "Potency": "inactive"}, {"smiles": "C[C@@H]1CN([C@H](C)CO)C(=O)CCCn2nncc2CO[C@H]1CN(C)Cc1ccc2c(c1)OCO2", "Potency": "inactive"}, {"smiles": "Cc1ncc2c(c1CNS(=O)(=O)N(C)C)CCN(C(=O)/C=C/c1ccccc1Cl)C2", "activity change, negative = growth inhibition": "inactive: 5.97% [at 9.04 µM]"}, {"smiles": "Cc1ccc(NC(=O)c2c(Cl)n(C)c3ccccc23)cc1", "Potency": "inconclusive [inhibitor, single point]"}, {"smiles": "COc1ccccc1C(=O)N(Cc1nc(-c2ccc(Cl)cc2)no1)C(C)C", "Potency": "active: 29.1 µM"}, {"smiles": "CC(CCc1ccco1)NC(=O)Cn1ncc2c1-c1ccccc1OC2", "note": "(stereo not drawn)", "Potency": "inconclusive [inhibitor, single point]"}, {"smiles": "CC1(c2nnc(Cc3ccccc3)o2)CC(c2ccccc2F)=NO1", "note": "(stereo not drawn)", "activity change, negative = growth inhibition": "inconclusive: -30.2% [inhibitor]"}, {"smiles": "C=CCN1C(=O)c2cccc3c(N4CCCCC4)ccc(c23)C1=O", "Potency": "inconclusive [inhibitor, partial curve, poor fit]"}, {"smiles": "O=C(/C=C/c1ccco1)NC(=S)Nc1cccc([N+](=O)[O-])c1", "Potency": "inconclusive [inhibitor, single point]"}, {"smiles": "CC(C(=O)NN=C(c1ccccc1)c1ccccc1)N1CCOCC1", "note": "(stereo not drawn)", "Potency": "inconclusive [inhibitor, single point]"}, {"smiles": "O=S(=O)(NC1c2cccc3cccc(c23)C1Sc1ncccn1)c1ccc(Cl)cc1", "note": "(stereo not drawn)", "Potency": "inconclusive [inhibitor, single point]"}, {"smiles": "CC(C)NC(=O)C(=O)Nc1ccc2c(c1)N(S(=O)(=O)c1cccs1)CCC2", "Potency": "inconclusive [inhibitor, single point]"}, {"smiles": "O=C(NCCCCCCNC(=O)c1ccccc1O)c1ccccc1O", "Potency": "inconclusive [inhibitor, partial curve, poor fit]"}, {"smiles": "CC(=O)Nc1ccc(S(=O)(=O)NCCSCc2c(Cl)cccc2Cl)cc1", "Potency": "inconclusive [inhibitor, partial curve]"}, {"smiles": "Cc1cc(C)nc(NC(=O)CCCC(=O)O)c1", "Potency": "inactive"}, {"smiles": "CCC(CO)Oc1cc(NCc2ccncc2)c2ncn(C(C)C)c2c1", "note": "(stereo not drawn)", "Potency": "inconclusive [inhibitor, single point]"}, {"smiles": "CCOc1ccc(S(=O)(=O)N2CCC(C(=O)OC(C)C(=O)NC3CCCCC3C)CC2)cc1", "note": "(stereo not drawn)", "Potency": "inactive"}, {"smiles": "Oc1ccccc1Nc1nc(NCc2ccco2)c2ccccc2n1", "Potency": "active: 16.4 µM"}, {"smiles": "COc1ccc(C(C(=O)NC2CCCCC2)N(C(=O)c2sc(C)nc2C)c2ccc(OC)cc2)cc1", "note": "(stereo not drawn)", "Potency": "inconclusive [inhibitor, single point]"}, {"smiles": "Oc1ccc(/C=N/N2CCCCC2)cc1O", "Potency": "inconclusive [inhibitor, single point]"}, {"smiles": "COC(=O)[C@@]12C[C@@H](CC(=O)N3CCCCC3)C(=O)N(Cc3ccco3)C1=CCC(C)(C)C2", "Potency": "active: 23.1 µM"}, {"smiles": "O=C(NCCc1ccccc1)c1ccc2c(c1)N(Cc1ccccc1)CCS2", "Potency": "inconclusive [inhibitor, single point]"}, {"smiles": "O=C(Nc1c(F)cccc1F)c1ccc2c(c1)CCN2S(=O)(=O)c1ccccc1", "Potency": "inconclusive [inhibitor, single point]"}, {"smiles": "O=C1CCCc2ccccc2N1Cc1cccc(Cl)c1", "Potency": "inconclusive [inhibitor, partial curve]"}, {"smiles": "CCCCCN1C/C=C\\C(c2ccc(OC)cc2)N(Cc2ccc(F)cc2)C(=O)C1", "note": "(stereo not drawn)", "Potency": "inconclusive [inhibitor, single point]"}, {"smiles": "COc1ccc(-c2noc(CCC(=O)N3CCN(c4cccc(C)c4)CC3)n2)cc1", "Potency": "inconclusive [inhibitor, single point]"}, {"smiles": "O=C(c1cccs1)N1CCCC(c2nc3c(nnn3Cc3ccccc3Cl)c(=O)[nH]2)C1", "note": "(stereo not drawn)", "Potency": "inconclusive [inhibitor, partial curve, poor fit]"}, {"smiles": "O=C(CN(Cc1ccccc1)S(=O)(=O)c1ccc(Br)cc1)NCC1CCCO1", "note": "(stereo not drawn)", "Potency": "inconclusive [inhibitor, single point]"}, {"smiles": "Fc1ccc(NCc2nnc(SCc3nnc(-c4ccccc4)o3)n2Cc2ccccc2)cc1", "Potency": "inconclusive [inhibitor, single point]"}, {"smiles": "COc1ccc(C(C(=O)NC(C)(C)C)N(CCO)C(=O)CCC(=O)Nc2cc(C)on2)cc1", "note": "(stereo not drawn)", "Potency": "inactive"}, {"smiles": "Clc1ccc(CN2CCC(CNc3ncnc4onc(-c5ccc(Cl)cc5)c34)CC2)cc1", "Potency": "inconclusive [inhibitor, single point]"}, {"smiles": "CCOC(=O)CNC(=O)N(C)[C@H]1C[C@H]2c3[nH]c4ccccc4c3CCN2C(=O)[C@H]1[C@H](C)O", "Potency": "inactive"}, {"smiles": "N=c1c(C(=O)NCCN2CCOCC2)cc2c(=O)n3ccccc3nc2n1Cc1ccc(F)cc1", "Potency": "inconclusive [inhibitor, single point]"}, {"smiles": "CCOC(=O)C(C(C)=O)C(c1ccc(OCCC(C)C)cc1)C(C(C)=O)C(=O)OCC", "note": "(stereo not drawn)", "Potency": "inconclusive [inhibitor, partial curve]"}, {"smiles": "CN(Cc1ccccc1)c1ccc(-c2nc(-c3ccccn3)no2)cc1[N+](=O)[O-]", "Potency": "inconclusive [inhibitor, single point]"}, {"smiles": "CCCCCCCCN1C(=O)[C@H](CC(=O)NCCC(C)C)C[C@@]2(C(=O)OC)CC(C)(C)CC=C12", "Potency": "inconclusive [inhibitor, single point]"}, {"smiles": "Nc1ncc2[nH]c(N)nc2n1", "Potency": "inactive"}, {"smiles": "CCC(C(=O)NC1CCCC1)N(C(=O)c1snc(C(N)=O)c1N)c1ccc(OC)cc1", "note": "(stereo not drawn)", "Potency": "inconclusive [inhibitor, single point]"}, {"smiles": "CCCOC(=O)c1ccc(Nc2nc(C)cc(=O)[nH]2)cc1", "Potency": "inconclusive [inhibitor, partial curve]"}, {"smiles": "COc1ccc(-c2nc(CSCC(=O)NCCc3ccccc3)c(C)o2)cc1", "Potency": "inconclusive [inhibitor, single point]"}, {"smiles": "CCCCN(C(=O)C1=NN(c2cc(C)ccc2C)C(=O)CC1)c1c(N)n(CCC)c(=O)[nH]c1=O", "Potency": "inactive"}, {"smiles": "CC(C)C1Oc2ccccc2N(CC(=O)N(C)C2CCCCC2)C1=O", "note": "(stereo not drawn)", "Potency": "inconclusive [inhibitor, partial curve, poor fit]"}, {"smiles": "CCn1c(CN2CCC(C)CC2)nc2cc(NC(=O)COc3ccc(Cl)c(C)c3)ccc21", "Potency": "active: 6.51 µM"}]}]}
